{"source": "ChEMBL document CHEMBL3885881", "about": "“DrugMatrix”", "species": "Rattus norvegicus", "assay": "DrugMatrix - Regimen: Daily Repeat", "format": "toxicity, organism-based, Sprague-Dawley", "parameters": "regimen Daily Repeat, gender Male, age 6-8 weeks", "details": "in vivo, po, 0 mg/kg, 72 h, route oral GAVAGE, dose level Control, time 3 day, vehicle 100 % SALINE", "note": "Some entries of the source have several records that differ or are many. This is not the full list of results. The source may hold further records. Results that share an entry are repeated measurements in other runs, samples, wells, individuals or studies. A tag in brackets gives the origin of a value. A, B and so on number the origins entry by entry.", "data": [{"smiles": "CN(C)C=O", "note": "[DIMETHYLFORMAMIDE]", "values": [{"measurement": "ABSOLUTE EOSINOPHIL", "setting": "tissue Blood", "result": "0 CELLS/uL [study A] and 66 CELLS/uL [study B]"}, {"measurement": "ABSOLUTE MONOCYTE", "setting": "tissue Blood", "result": "103.5 CELLS/uL [study A] and 401.5 CELLS/uL [study B]"}, {"measurement": "LACTATE DEHYDROGENASE", "setting": "tissue Plasma", "result": "513.5 u/L [study A] and 88.17 u/L [study B]"}]}]}
